Results from PMC12136788.
The other results are listed elsewhere or left out.

B1: chr11:134247321:134247422:+|3pUTR|ENSG00000151502|unk|FALSE|unique (ssRNA)
RNA: GGGAGUUCUACAGUCCGACGAUCCCUUUUCAGAGCAUGAGGUCAGGCUCUGUAUCCCUCCUUUUCCUAGCUGAUAUUCUAACUAGAAGCAUUUGUCAAUUCCUUUGCCUCCCAACUGACAACACACGUUCAUUUUCCAACCUUCAACAGAGGAUUGAGCAUCA
B2: chr5:172042892:172042993:-|3pUTR|ENSG00000072786|msi1|FALSE|unique (ssRNA)
RNA: GGGAGUUCUACAGUCCGACGAUCGAUUCUCCCGCUUCAACCUUGAGUAGCUGGGACGACAGAUACAUGCUACUGCACCCAGCUAGGUUAAGGUUCUGUAUACUCUGUCUUUCUAAAGCAAUUCCCUGGAAAUUUUCUCAACAUCAACAGAGGAUUGAGCAUCA
B3: chr11:92891788:92891889:+|3pUTR|ENSG00000165323|msi1|FALSE|bound_elsewhere (ssRNA)
RNA: GGGAGUUCUACAGUCCGACGAUCAUGAGGCUUUUUGGGUUCCAUUUGGUGGGUGGGGGAGGAAGUUAAAGUUGUUUGAACAUUAGAAAGAAUGUGAUUAUCUGGUUGGUUUUGUGUUUUCUGGUAAAUAUUCCAGUUGGUAAACAACAGAGGAUUGAGCAUCA
B4: chr16:58279996:58280223:-|three_prime_utr|ENSG00000103023|control|control|control (ssRNA)
RNA: GGGAGUUCUACAGUCCGACGAUCGUAAACUGAGAAUGCUGAGUGCCAGGCAUUCACCAUGCUGUUUUGAUGUCUGUUUUUGAUAGUUGCACACUGGGGCUGCCACGGAUAAGCCCAUGGCAUACACUGGGCUGGCUCUCCCUCCAACAGAGGAUUGAGCAUCA
B5: chr10:67912576:67912687:+|CDS|ENSG00000096717|unk|FALSE|unique (ssRNA)
RNA: GGGAGUUCUACAGUCCGACGAUCUUUUGAUGUAGAGCUUCUUGGAGACUGUGAUGUCAUAAUUAAUGAAUUGUGUCAUAGGUUAGGUGGUGAAUAUGCCAAACUUUGCUGUAACCCUGUAAAGCUUUCAGAAAUUACUGAAAACAACAGAGGAUUGAGCAUCA
B6: chr2:11642538:11642650:+|3pUTR|ENSG00000196208|unk|total|mutant (ssRNA)
RNA: GGGAGUUCUACAGUCCGACGAUCCGAAGAGUUGAUGUCAAUCUUUUUUUCCUAAGAAAAAAAGUCCGCGAGUAUUAAAUAUUCCGAUCAAUGUUUAUAAAAUGAUUACUUUGUAUAUCUCAUUAUUCCUAUUUUGGAAUAAAACAACAGAGGAUUGAGCAUCA
B7: chr19:4839056:4839157:-|3pUTR|ENSG00000105355|msi1|FALSE|unique (ssRNA)
RNA: GGGAGUUCUACAGUCCGACGAUCUCUAUAAUGCAGCUGUGCUCUGGAGUCCUCAACCCGGGGCUCAUUUCAAACUUAUUUUCUAGCCACUCCUCCCAGCUCUUCUGUGCUGUCCACUUGGGAAGCUAAGGCUCUCAAAACGGGCAACAGAGGAUUGAGCAUCA
B8: chr22:38866210:38866312:-|CDS|ENSG00000183741|unk|FALSE|bound_elsewhere (ssRNA)
RNA: GGGAGUUCUACAGUCCGACGAUCGACGGUCACAAUCAAGGAAUUCUGCAACCCUGAGGAUUUCGAGAAGGUGGCUGCUGGGGUAGCAGGCGCCGCUGGGGGCGGUGGCAGCAUUGGGGCGAGCAAGUGAGGGGGCUCCACCAACAACAGAGGAUUGAGCAUCA
B9: ENSG00000198589:be:win_701|CDS|ENSG00000198589|bound_else_gene|NA|bound_elsewhere_windowed (ssRNA)
RNA: GGGAGUUCUACAGUCCGACGAUCAUACAUGGCUUAGAAUGGAUCCUGUAAAUAACAUCAAUGUAGAUAAGGAUAAACCAUAUUUGUAUUGUUUCAGAACCAGCAAAGGUCUUGGCUAUUCUGCUCAUUUUGUUGGAGGCUGUUCAACAGAGGAUUGAGCAUCA
B10: chr11:130404922:130405557:-|three_prime_utr|ENSG00000134917|control|control|control (ssRNA)
RNA: GGGAGUUCUACAGUCCGACGAUCAUGGGGCGGCAGACCCUAUCAUCAACUGUCCAGUGGACUGGACCUUGCUCGGGUUCAAGUAGAGGGCAUAGGUUAAAAGGUAAAAGUGCACUUAUUGACUCAGACAGGACACUCAGCGUCCAACAGAGGAUUGAGCAUCA
B11: chr6:145805060:145805161:-|CDS|ENSG00000118496|unk|FALSE|bound_elsewhere (ssRNA)
RNA: GGGAGUUCUACAGUCCGACGAUCAGAAGAUCCUAUGGGCCUCCAAGGAAUAGAUCUGAUCACAGCAGCAUUGCUUUUUUGUCUAGGAGAUUCUCCAGGAGGGAGGGGUAUAUCUGAUAGCCGCAUGGCUGAUAUUUAUCACAUCAACAGAGGAUUGAGCAUCA
B12: ENSG00000136451:be:win_1501|CDS_3pUTR|ENSG00000136451|bound_else_gene|NA|bound_elsewhere_windowed (ssRNA)
RNA: GGGAGUUCUACAGUCCGACGAUCGCAAUGAGACCUGUAGAGAGCAUGCCUUUCUUGCCCCAAGCUUUGCCUACAUCACCGCCUUGGUAAACAGUAUUAUAAAAUCAAAAUAUGGGUAAAAGUAAAUAUUUACCAGCAACUUAACAACAGAGGAUUGAGCAUCA
B13: ENSG00000198589:be:win_801|CDS|ENSG00000198589|bound_else_gene|NA|bound_elsewhere_windowed (ssRNA)
RNA: GGGAGUUCUACAGUCCGACGAUCUCAUUUUGUUGGAGGCUGUUUGAUUGUAACAUCAAUAAAGUCAAAAGGAAAAGGCUUUCAACACUGUGUGAAAUUUGAUUUCAAGCCACAAAAGUGGUAUAUGGUUACCAUAGUACACAUCAACAGAGGAUUGAGCAUCA
B14: chr2:112756978:112757080:-|CDS|ENSG00000169607|unk|FALSE|unique (ssRNA)
RNA: GGGAGUUCUACAGUCCGACGAUCCUUCUGGGCAAAAGGCUGACUUCAGAAUGUGUUUCUUCUAACCCAUACUCUAAGCCUUCUAGCAAGAGUUUUCAACAGUGUGAAGCUGGAUCGUCCACAACAGGAGAACUGUCAAGAAAACAACAGAGGAUUGAGCAUCA
B15: ENSG00000136451:be:win_3701|3pUTR|ENSG00000136451|bound_else_gene|NA|bound_elsewhere_windowed (ssRNA)
RNA: GGGAGUUCUACAGUCCGACGAUCUCUCUGGUGGGCUGGCAGUCAUAAUUCACAAUUCAGACAGCCCAGGCUUCCUCCACAGUGGUCCAAGGAGCAGUCCUCAGUGGGGGCAGGUGUGGGCCCUACCCCUAAGCUAGAAUGUGGCAACAGAGGAUUGAGCAUCA
B16: ENSG00000168615:stop:overlap|stop_codon|ENSG00000168615|stop_codon|NA|stop_codon (ssRNA)
RNA: GGGAGUUCUACAGUCCGACGAUCCUGGCCAGAAUACCCAAAAUAAUUGGCAGAUGUCAAAUUUGGCUUUCUGUGUUUAUUACUAGAGCAUAAACAUUUCUAGUUUUGUUUGAGUGUUUUACAGUCCUUUUUGGCAGUUAGGUACAACAGAGGAUUGAGCAUCA
B17: chr8:48920054:48920155:-|CDS|ENSG00000019549|unk|FALSE|unique (ssRNA)
RNA: GGGAGUUCUACAGUCCGACGAUCACCUAUUCAACUUUUUCUGGGCUGGCCAAACAUAAGCAGCUGCACUGCGAUGCCCAGUCUAGAAAAUCUUUCAGCUGUAAAUACUGUGACAAGGAAUAUGUGAGCCUGGGCGCCCUGAAGCAACAGAGGAUUGAGCAUCA
B18: chr2:54972555:54972835:-|3pUTR|ENSG00000115310|msi1_unk|FALSE|overlapping (ssRNA)
RNA: GGGAGUUCUACAGUCCGACGAUCUGUGCACUGUGUAUGGUCCGUGUAGAUUGAUGCAGAUUUUCUGAAAUGAAAUGUUUGUUUAGACGAGAUCAUACCGGUAAAGCAGGAAUGACAAAGCUUGCUUUUCUGGUAUGUUCUAGGCAACAGAGGAUUGAGCAUCA
B19: chr22:20586770:20586871:+|3pUTR|ENSG00000099917|unk|total|mutant (ssRNA)
RNA: GGGAGUUCUACAGUCCGACGAUCACACGCCUCCUGUCAGACACUUCCCGGUGUUGGCUUCCUCCGAGAGCCUGGGGUCCGGUCCGCUUUCCUGCUUUUAUCUUCUGCCUUGGGGACCUGCCAAACGAAAUCCCACACCUGUACCAACAGAGGAUUGAGCAUCA
B20: ENSG00000070961:be:win_1051|CDS|ENSG00000070961|bound_else_gene|NA|bound_elsewhere_windowed (ssRNA)
RNA: GGGAGUUCUACAGUCCGACGAUCAAAGCAAAUUUGCCAAAAAAGGAAAAAUCUGUUUUACAAGGGAAACUUACAAAACUGGCUGUUCAGAUUGGCAAAGCAGGUCUGUUGAUGUCUGCCAUCACAGUUAUCAUUCUAGUAUUACAACAGAGGAUUGAGCAUCA
B21: chr2:159432892:159433005:-|CDS|ENSG00000123636|unk|total|mutant (ssRNA)
RNA: GGGAGUUCUACAGUCCGACGAUCACACCUGUAAUGCCCUCUGCCUCUCCCAUCCUGCACCGUCAAGGGAAGGAAAAAGCAGUCCGCAAUAAUGUAAACCCAGUAAAAACACAGCAUCACUCCCAUCCUGCAAAAUCUUCCGUGCAACAGAGGAUUGAGCAUCA
B22: chr5:177457090:177457109:-|3pUTR|ENSG00000113758|msi1_unk|total|mutant (ssRNA)
RNA: GGGAGUUCUACAGUCCGACGAUCGGCCGUUGAGACGCUGUUGCAAAUUCCACCCCUCCUUCCCUGGUCCAGAUUGCCGCUCUCCGUCCUCCCUGCUCAGCUGGCCGGGUUGGAGGCCUCACCCUGCUUGGGGCCUGGCGUGGGCAACAGAGGAUUGAGCAUCA

molecular target: MSI1 full-length (mouse, UniProt Q61474 1-362); experiment: nsRBNS (natural sequence RNA bind-n-seq); RBNS binding buffer (assumed for nsRBNS): 25 mM Tris pH 7.5, 150 mM KCl, 3 mM MgCl2, 0.01% Triton X-100, 500 ug/ml BSA, 20 U/ml SUPERase-In, 4 C; UNK is unkempt and MSI1 is Musashi-1; names of the RNAs are library labels; protein concentration not given here; high values mean tight binding
Sequence of UniProt Q61474 (Q61474 whole entry): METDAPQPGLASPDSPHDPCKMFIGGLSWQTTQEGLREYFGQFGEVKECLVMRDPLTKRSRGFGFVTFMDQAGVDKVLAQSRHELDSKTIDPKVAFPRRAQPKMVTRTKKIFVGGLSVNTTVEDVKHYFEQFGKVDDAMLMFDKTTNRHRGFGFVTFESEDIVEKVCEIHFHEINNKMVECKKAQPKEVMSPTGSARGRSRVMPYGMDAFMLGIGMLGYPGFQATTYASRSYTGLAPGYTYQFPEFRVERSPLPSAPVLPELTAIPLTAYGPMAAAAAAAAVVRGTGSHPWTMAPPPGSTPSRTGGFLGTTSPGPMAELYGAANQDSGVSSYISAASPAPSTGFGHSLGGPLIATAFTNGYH

Binder | binding signal [enrichment R]
B1 | 1.18
B2 | 0.423
B3 | 1.1
B4 | 0.44
B5 | 0.795
B6 | 0.529
B7 | 0.751
B8 | 0.51
B9 | 1.38
B10 | 0.878
B11 | 0.421
B12 | 0.827
B13 | 0.264
B14 | 0.472
B15 | 0.479
B16 | 0.392
B17 | 0.478
B18 | 0.252
B19 | 0.509
B20 | 0.43
B21 | 1.09
B22 | 0.701
